The values below come from PubChem BioAssay (NCI).

The experiment deals with NCI-H322M lung. Description: growth of human tumour cells (NCI), 48 h.

SMILES strings stand for the structures. Where “and” joins values, the source holds several entries; their conditions need not be identical. Identical values can stand only once.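 Briefly, cells in 96-well plates were exposed to five compound concentrations for 48 h, and endpoints were estimated by linear interpolation. Here, GI50 denotes the concentration required for 50% inhibition of growth. TGI: total growth inhibition.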

For the compound `CC[C@H](C)[C@H](NC(=O)C12C3C4C1C1C2C3C41NC)C(=O)N(C)[C@H](C[C@@H](OC(C)=O)c1nc(C(=O)N[C@@H](Cc2ccccc2)C[C@H](C)C(=O)OC)cs1)C(C)C` (some centres not stated), the GI50 was 0.895 µM and the TGI was above 14.3 µM.
Regarding `Cc1ccc(S(=O)(=O)N/N=C2\C=CC3(CC2)C(=O)N(I)c2ccccc23)cc1` (configuration not stated), the TGI was above 100 µM.
The compound `CC1=NN(c2nc(N)nc(CO)n2)C(C)(C)C1` registered a TGI above 100 µM.
On to `COC(=O)[C@@]12OC[C@]34[C@H]([C@@H](O)[C@@H]1O)[C@@]1(C)CC(=O)C(O)=C(C)[C@@H]1C[C@H]3OC(=O)[C@H](OC(=O)/C=C(\C)C(C)C)[C@@H]24`, for which the TGI is 0.0915 µM and 0.325 µM and 0.0462 µM.
Consider `NC(CCC(=O)c1ccccn1)C(=O)O` (configuration not stated), for which the TGI is above 100 µM.
In the case of `O=C(O)CNc1ccc2c(c1)Cc1cc(Br)ccc1-2`, the TGI is above 77.4 µM.
As for `Cc1cc(Cl)ccc1N=C1NC(=O)C(CC(=O)Nc2cccc(Cl)c2)S1` (configuration not stated), the TGI was above 100 µM.
The compound `Cc1nc2ccc(NCCN(C)C)c3c(=O)c4ccccc4n1c23` yielded a TGI of 12.2 µM.
`CSc1c(C(C)=O)c(O)n(-c2ccc(C)cc2)c(=O)c1C#N` gave a TGI above 100 µM.
`N#C/C(=C\c1ccc(O)cc1)C(N)=O`: the TGI was above 100 µM.
As to `O=[N+]([O-])c1ccccc1N=Nc1c(O)[nH]c2c(Cl)cccc12`, the TGI is above 100 µM.
`COc1ccc2nc3ccccc3c(NCCNCCO)c2c1`: the GI50 is 0.459 µM and the TGI is 2.02 µM.
Take `CC(=O)OCC1OC(OCCCOP(=O)(OCCC#N)OCC2OC(n3cnc4c(N)ncnc43)C(OC(=O)c3ccccc3)C2OC(=O)c2ccccc2)C(OC(C)=O)C(OC(C)=O)C1OC(C)=O` (configuration not stated): the TGI was above 100 µM.
For the compound `Cc1cc(N2CCC(N3CCCC3)CC2)nc(/N=C(\N)Nc2ccc(Cl)c(Cl)c2)n1`, the GI50 was 1.89 µM and the TGI came out at 3.75 µM.
